The RNAGym collection of RNA variant scans (doi:10.7554/elife.90254)
Read counts are not given, so values of variants with three or more changes are uncertain.

B1: LINE1-mini (parent)
chain: GGCAGAGCUCAACACAGCGUGGCAAAGUGGCUGUGGCUAGACUGCC

Variants of: B1
Assay: self-cleavage, relative activity (ratio to wild type); higher = more cleavage; in vitro, sequencing; the parent is a self-cleaving ribozyme

Variant | self-cleavage
G17C G19C G33A A41G | 0.07
G27A U32G G44A | 0.03
G1C A11C C31G | 0.01
G27A U34C C42G | 0.05
G27U G36C U38A | 0.03
C8A G36U A39U | 0.05
U9A G19A U32G C46A | 0.03
C8G G30U A41C | 0.04
G22U G30C G36U | 0.04
U9G A11C C31A U34C | 0
C8A G17C G21C G35U | 0.05
A6G U9C U38C | 0.02
C3A U32A G33A | 0.17
G1A C8G A25U U34C C46U | 0.06
C15G A26C C31A | 0.01
G5A C15G G27C | 0
A14C C23U A24C | 0.22
G29C U38G A41U | 0
C3G A4G G22C C46G | 0.03
C13U C37A U43A | 0.06
G7C G27A C31U | 0.09

Variant | self-cleavage
A11C U32A C46U | 0
G2A A4C G19A U20G U34G G44U | 0.01
G5A C18G U20C G36C | 0.03
U28G U38G A39G | 0.02
G2C C8U C13G G27A | 0.25
A12U C23A G29U G35C A41G C42G | 0.01
C10G C18A C23G | 0.06
A6U G19C C23U | 0.44
G1U A16G A39G A41U G44U | 0.17
C13G G19A G33U | 0.09
C8G A26G C46A | 0.03
G1C C8A G17C G40U | 0.06
G2U C15U C37A G44A | 0.08
C8U A24U G35C C45A | 0.18
U28A G40U C42G | 0.02
G2A A4U G5A A11U C13A C45G | 0.05
A6G U9C C18A C23U A41U | 0.01
C8U U34C G36A G40U | 0.09
G7A A11C A24G | 0.02
U9G A16C A24U | 0.01
A14C C15A C18A A24U G36U | 0.02

Variant | self-cleavage
C8U C10G A14C C23A A26G U32G | 0.01
A4U A41G G44C | 0
A6U C8G U9G | 0.03
A14U A24U G27C | 0.48
A14U A16C A26U G33C | 0.01
C3G A4U G36A C46U | 0.19
G1A C3A C23A A26U U28C G35C | 2.42
C13A C42G G44A | 0.35
G2A G7A C8G G22U | 0.35
G1C A6U C13U G33A | 0.16
C8U A16G G27A G29C C46A | 0.09
A6G A14C A26U G35A A39C | 0.04
C15A G19A A24C G36C | 0.03
C15G A16C A25C G33C | 0
A4G C8G C18A G22A C45A | 0.02
G29A G33A C37U | 0.02
G7U A16U A39C G40U | 0.07
C10A G30U G36A | 0.03
G5C A16G G19U A25U | 0.03
G21C G30C C31A G40U C46A | 0.04
G17A C23U U38A G40C | 0

Variant | self-cleavage
G7U A11G G27U G29A | 0.02
G2U A4G G7C U34G U38G | 0.03
G1C A16G G21C | 0.07
G7C C15U A24G G29A G44A | 0.08
A11C C37A U38C | 0.01
A25U G30C G33C | 0.01
A4C C13G C42A | 0.13
G5U A14G C23A | 0.06
G2A A4C G33A | 0.09
G7C A12G A16C C42A | 0.01
C8A A11C G27U C37A U38G | 0
U20G C23A A26G G33C | 0.05
G30U U34A C37G | 0.01
G36A A41C C46A | 0.18
A14U C15A G33C | 0.01
C8U G17U A24C C46A | 0.13
G17C G21A C31U | 0.11
C3A G22A G29C G33C A39G | 2.55
A26U G29U C42A | 0.31
G1U G27U U32C G35U G40C | 0.03
A4U G22A U38G A41U | 0.04
